According to PubChem BioAssay AID720708 (National Center for Advancing Translational Sciences (NCATS), 2013):
The whole screen tested about 360,000 compounds, of which about 660 (0.18%) were called active. The inconclusive results got no clear call from the source; some entries with a clear call stand among them for comparison. Calls come from the whole dose curve; as a rule, active = well fitted inhibition curve with a large enough effect; inconclusive = small, poorly fitted or top-dose-only effect; inactive = no such curve, though single readings can be large or run the other way. Potencies of inconclusive entries are left out as doubtful fits.

These molecules were tested against Rap guanine nucleotide exchange factor 4 (Homo sapiens) (UniProt Q8WZA2) (assay: qHTS for Antagonist of cAMP-regulated guanine nucleotide exchange factor 2 (EPAC2): primary screen). Conditions: EPAC2 GEF exchange of Rap1B-BODIPY-GDP, fluorescence; series mostly up to 114 µM.
Sequence of UniProt Q8WZA2 (Q8WZA2 whole entry, looked up): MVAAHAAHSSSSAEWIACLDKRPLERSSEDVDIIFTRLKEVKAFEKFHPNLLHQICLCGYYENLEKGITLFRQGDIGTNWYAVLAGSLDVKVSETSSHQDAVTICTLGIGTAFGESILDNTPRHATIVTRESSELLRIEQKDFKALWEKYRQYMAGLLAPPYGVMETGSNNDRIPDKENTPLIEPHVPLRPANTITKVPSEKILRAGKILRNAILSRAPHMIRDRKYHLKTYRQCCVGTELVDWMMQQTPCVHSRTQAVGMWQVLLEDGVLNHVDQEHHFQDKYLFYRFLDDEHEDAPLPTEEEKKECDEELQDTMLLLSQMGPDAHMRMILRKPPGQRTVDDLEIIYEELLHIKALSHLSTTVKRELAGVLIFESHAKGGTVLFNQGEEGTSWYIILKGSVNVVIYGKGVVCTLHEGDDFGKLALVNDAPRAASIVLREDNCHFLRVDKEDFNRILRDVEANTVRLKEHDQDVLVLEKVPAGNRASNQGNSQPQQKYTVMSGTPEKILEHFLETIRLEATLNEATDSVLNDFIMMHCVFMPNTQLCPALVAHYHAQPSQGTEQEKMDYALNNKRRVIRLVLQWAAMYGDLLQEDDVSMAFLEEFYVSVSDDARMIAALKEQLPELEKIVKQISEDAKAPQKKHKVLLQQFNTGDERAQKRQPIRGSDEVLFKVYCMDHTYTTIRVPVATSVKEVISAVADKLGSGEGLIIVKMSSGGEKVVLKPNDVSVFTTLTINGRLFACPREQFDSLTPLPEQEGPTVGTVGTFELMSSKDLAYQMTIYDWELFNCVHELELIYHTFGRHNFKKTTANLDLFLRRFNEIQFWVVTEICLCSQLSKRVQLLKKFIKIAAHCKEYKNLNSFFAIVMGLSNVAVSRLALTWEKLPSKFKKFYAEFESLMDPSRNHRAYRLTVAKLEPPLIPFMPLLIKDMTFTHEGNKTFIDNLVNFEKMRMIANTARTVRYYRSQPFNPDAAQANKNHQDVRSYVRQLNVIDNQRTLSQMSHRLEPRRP
Note: nearly all actives have a fitted effect of over 45% in size.
Potency is the fitted concentration of half-maximal effect; tags give direction and shape of the fitted curve.

SMILES	Potency
CCOC(=O)/C(=C\c1ccc(Cl)cc1)c1nc2sc(C)c(C)c2c(=O)[nH]1	inactive
O=C(NC(=S)Nc1c(Cl)cc(Cl)cc1Cl)c1ccccc1	inconclusive [inhibitor, full curve]
O=C(NCc1cccnc1)c1cc(C2CCCCN2S(=O)(=O)c2ccc(F)cc2F)on1 (centres undefined)	inconclusive [inhibitor, partial curve, poor fit]
O=C(Nc1cccc(/C=C/c2nc3ccccc3c(=O)[nH]2)c1)c1ccccc1Cl	inconclusive [inhibitor, single point]
CCC/C(=C1/c2ccccc2C(=O)N1c1ccccc1)c1ccc2c(c1)OCO2	inconclusive [inhibitor, full curve]
CC(=O)c1cccc(N(CC(=O)NC2CCCCC2)C(=O)CNC(=O)c2cccs2)c1	inconclusive [inhibitor, single point]
C#CCOCCOCCOCCNc1nc(N2CCOCC2)nc(N2CCN(C(=O)[C@H](CCCCN)n3cc([C@@H](N)CC(C)C)nn3)CC2)n1	inconclusive [inhibitor, single point]
CCCn1c(N)c(C(=O)CN(C)CC(=O)Nc2cc(C)ccc2C)c(=O)[nH]c1=O	inactive
COC(=O)c1cc(COC(=O)c2cccnc2SC)oc1C	inactive
Cc1ccccc1C(=O)Nc1cccc(N)c1	inactive
COc1cc(CNc2ccc(O)cc2)cc(Br)c1OCc1ccccc1F	inconclusive [inhibitor, partial curve]
CN(C)c1ccc(C=c2c3ccccc3n3c2c2ccccc2[n+]3C)cc1	active: 44.7 µM
Cc1ccc(S(=O)(=O)N(C)C)cc1NC(=O)c1cc(C(C)(C)C)nn1Cc1ccccc1	inconclusive [inhibitor, full curve, poor fit]
COc1ccccc1-n1cnnc1SCC(=O)Nc1ccccc1	inactive
COc1cccc(C(NC(C)=O)c2nc(-c3cccs3)cs2)c1 (centres undefined)	inconclusive [inhibitor, partial curve]
COc1ccccc1CN(C)CC(=O)Nc1ccc(Cl)cc1F	inconclusive [inhibitor, partial curve]
Cc1ccc(NC(=O)c2c(C(F)(F)F)nn(C)c2SCc2ccc(Cl)cc2)cc1C	inconclusive [inhibitor, partial curve, poor fit]
Cc1nc(SCC(N)=O)c(C#N)c(C)c1C	inconclusive [inhibitor, single point]
Cc1oc2cc3oc(=O)c(CC(=O)O)c(C)c3cc2c1-c1ccccc1	inconclusive [inhibitor, full curve]
